Consider one molecule from article PMC3630135, “Tenascin C Promiscuously Binds Growth Factors via Its Fifth Fibronectin Type III-Like Domain” (PLoS ONE, 2013).

Sequences of proteins named here, by UniProt entry; tags and fusion partners are left off. Residues count along the entry.
GST-TNCIII3-5 (P24821, residues 801-1074): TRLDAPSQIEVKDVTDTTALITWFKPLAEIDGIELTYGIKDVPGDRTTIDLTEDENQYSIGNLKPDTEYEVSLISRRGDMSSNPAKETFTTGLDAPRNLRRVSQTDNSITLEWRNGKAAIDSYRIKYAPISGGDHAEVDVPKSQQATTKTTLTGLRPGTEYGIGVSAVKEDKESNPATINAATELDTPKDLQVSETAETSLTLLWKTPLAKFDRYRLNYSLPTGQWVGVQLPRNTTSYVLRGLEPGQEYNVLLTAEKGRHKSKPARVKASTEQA
GST-TNCIII3-4 (P24821, residues 801-983): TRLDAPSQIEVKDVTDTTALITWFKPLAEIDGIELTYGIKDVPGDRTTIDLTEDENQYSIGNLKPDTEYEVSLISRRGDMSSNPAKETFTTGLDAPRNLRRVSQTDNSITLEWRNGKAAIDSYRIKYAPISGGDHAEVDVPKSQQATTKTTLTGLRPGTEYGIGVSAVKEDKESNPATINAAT
GST-TNCIII3 (P24821, residues 801-891): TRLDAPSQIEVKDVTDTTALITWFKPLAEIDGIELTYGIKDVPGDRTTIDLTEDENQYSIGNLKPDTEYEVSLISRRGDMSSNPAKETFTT
GST-TNCIII4-5 (P24821, residues 891-1074): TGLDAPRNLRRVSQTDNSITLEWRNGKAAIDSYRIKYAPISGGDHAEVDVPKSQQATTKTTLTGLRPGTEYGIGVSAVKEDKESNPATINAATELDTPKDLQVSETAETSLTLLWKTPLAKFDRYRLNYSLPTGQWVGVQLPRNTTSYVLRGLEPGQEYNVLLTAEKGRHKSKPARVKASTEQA
GST-TNCIII4 (P24821, residues 891-983): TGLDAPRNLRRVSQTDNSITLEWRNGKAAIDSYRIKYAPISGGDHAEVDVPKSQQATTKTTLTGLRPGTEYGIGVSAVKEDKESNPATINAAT

Targets include GST-TNCIII3 (human) (UniProt P24821); GST-TNCIII3-4 (human) (UniProt P24821); GST-TNCIII3-5 (human) (UniProt P24821); GST-TNCIII4 (human) (UniProt P24821); GST-TNCIII4-5 (human) (UniProt P24821).
Common to all, as to assay: ELISA; GST-TNCIII domains (1 µM in PBS) coated, blocked with 2% BSA; 2 nM PDGF-BB, 1 h RT; detected with anti-PDGF-BB and HRP anti-mouse; both purified
(In an ELISA, binding on a coated surface is turned into a signal by an enzyme label.)

No constants are given. Whether binding was seen depends on the method and setting. Some results given as binding are weak or reduced against the parent protein; the word gives no strength.

B1: PDGF-BB (ligand, human, UniProt P01127 82-190, looked up)
chain: SLGSLTIAEPAMIAECKTRTEVFEISRRLIDRTNANFLVWPPCVEVQRCSGCCNNRNVQCRPTQVQLRPVQVRKIEIVRKKPIFKKATVTLEDHLACKCETVAAARPVT
notes: Two B chains by its name; source: bought: Gibco
As to B1, the binding result is on record as “no binding (tested: 2 nM)” with GST-TNCIII3 (human); “binds” in the experiment with GST-TNCIII3-4 (human); “binds” with GST-TNCIII3-5 (human); “binds” with GST-TNCIII4 (human); “binds” in the experiment with GST-TNCIII4-5 (human).
